In paper PMC7564666:
Substitutions are numbered along the chain they refer to. These are yes or no findings as the source states them, for the method shown. For some of these results: In cells and extracts the contact can be indirect. Some entries that bind do so weakly or less than the wild type. Sequences can lack the tags named with a protein.

Chains of the proteins cited; added tags and fusions are not shown.
UniProt Q9UKV8: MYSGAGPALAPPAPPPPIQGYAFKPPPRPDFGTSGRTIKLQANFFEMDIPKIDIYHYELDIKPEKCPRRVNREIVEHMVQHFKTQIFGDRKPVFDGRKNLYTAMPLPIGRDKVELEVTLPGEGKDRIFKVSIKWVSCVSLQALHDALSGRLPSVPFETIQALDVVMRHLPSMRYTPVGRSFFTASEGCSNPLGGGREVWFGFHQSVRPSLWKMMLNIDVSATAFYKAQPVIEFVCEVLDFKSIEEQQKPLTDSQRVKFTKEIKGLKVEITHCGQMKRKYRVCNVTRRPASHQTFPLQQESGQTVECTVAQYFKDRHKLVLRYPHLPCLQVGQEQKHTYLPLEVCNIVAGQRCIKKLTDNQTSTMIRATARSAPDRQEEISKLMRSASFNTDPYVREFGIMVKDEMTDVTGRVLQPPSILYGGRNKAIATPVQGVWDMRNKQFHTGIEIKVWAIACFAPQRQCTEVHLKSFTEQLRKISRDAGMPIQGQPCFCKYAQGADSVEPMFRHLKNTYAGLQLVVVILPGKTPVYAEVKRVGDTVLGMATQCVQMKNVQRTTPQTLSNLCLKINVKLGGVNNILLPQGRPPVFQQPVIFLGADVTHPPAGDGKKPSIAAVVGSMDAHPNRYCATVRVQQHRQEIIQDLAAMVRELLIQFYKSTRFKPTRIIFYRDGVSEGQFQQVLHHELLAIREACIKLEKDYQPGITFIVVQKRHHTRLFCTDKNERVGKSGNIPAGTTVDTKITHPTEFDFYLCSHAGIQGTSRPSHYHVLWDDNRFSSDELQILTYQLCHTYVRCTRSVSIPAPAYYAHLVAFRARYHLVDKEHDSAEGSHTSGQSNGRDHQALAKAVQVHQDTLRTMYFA

Experiments:
[1] = biological target: T1, GST-LASP1 S146A (human) (UniProt Q14847); experiment: pull-down; direct binding: 1.5 nmol GST-LASP1, its domains or its phospho-mutants on glutathione-agarose beads with 100–200 ng of purified recombinant Ago2, 2 h at 4 °C, washed with lysis buffer; Western blot; both purified
T1 sequence: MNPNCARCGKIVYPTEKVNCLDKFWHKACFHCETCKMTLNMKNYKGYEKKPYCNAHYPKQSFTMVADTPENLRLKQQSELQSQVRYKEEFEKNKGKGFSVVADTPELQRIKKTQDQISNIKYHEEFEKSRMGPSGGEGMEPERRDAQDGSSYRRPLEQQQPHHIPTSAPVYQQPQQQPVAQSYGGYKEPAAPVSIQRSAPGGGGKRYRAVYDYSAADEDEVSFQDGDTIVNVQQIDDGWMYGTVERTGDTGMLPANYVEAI

[2] = biological target: T2, GST-LASP1 SH3 domain (residues 200–261) (human) (UniProt Q14847); experiment: as above
T2 sequence: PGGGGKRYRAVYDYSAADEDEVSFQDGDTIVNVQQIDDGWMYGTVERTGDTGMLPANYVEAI

[3] = biological target: T3, GST-LASP1 S146D (human) (UniProt Q14847); experiment: as above
T3 sequence: T1 sequence with A146D

[4] = biological target: T4, GST-LASP1 Y171F (human) (UniProt Q14847); experiment: as above
T4 sequence: T1 sequence with A146S, Y171F

[5] = biological target: T5, GST-LASP1 S146D/Y171D (human) (UniProt Q14847); experiment: as above
T5 sequence: T1 sequence with A146D, Y171D

[6] = biological target: T6, GST-LASP1 (full length LIM and SH3 Protein 1, residues 1–261) (human) (UniProt Q14847); experiment: as above
T6 sequence: T1 sequence with A146S

[7] = biological target: T1, GST-LASP1 S146A (human); experiment: pull-down; 1.5 nmol GST-LASP1 phospho-mutants on glutathione-agarose beads with 1 mg of Bone-Un LASP1 knockout total lysate (Co-IP buffer), 2 h at 4 °C; Western blot for Ago2; only the target purified
[8] = biological target: T7, GST-LASP1 S146D/Y171F (human) (UniProt Q14847); experiment: as above
T7 sequence: T1 sequence with A146D, Y171F

[9] = biological target: T3, GST-LASP1 S146D (human); experiment: as above
[10] = biological target: T4, GST-LASP1 Y171F (human); experiment: as above

binding [1] | binding [2] | binding [3] | binding [4] | binding [5] | binding [6] | binding [7] | binding [8] | binding [9] | binding [10] | Substance
binds | binds | binds | binds | binds | binds | – | – | – | – | purified recombinant Ago2 (from UniProt Q9UKV8 1-859)
– | – | – | – | – | – | binds | binds weakly | binds | binds | argonaute 2 (Ago2), endogenous (from UniProt Q9UKV8 1-859)
